The results in this text go back to the RNAGym collection of RNA variant scans (doi:10.1101/gad.245936.114).

To fix the notation:
B1: tRNA (parent)
chain: CUCUCGGUAGCCAAGUUGGUUUAAGGCGCAAGACUUUAAUUUAUCACUACGAAAUCUUGAGAUCGGGCGUUCGACUCGCCCCCGGGAGAUUUUUUCCUCGAGCAA

Variants at the background level are over-represented here.

The variants in this series derive from B1. Nature of the series: nonsense suppression (GFP-seq) (ratio to wild type); higher = more function; SUP4oc tRNA, yeast GFP reporter sort-seq. Summed up:
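Yeast were grown in raffinose/galactose medium with 80 mg/L adenine, each strain bearing a genome-integrated ochre-suppressor tRNA variant from a ~3% random-mutation library, a galactose-driven GFP ochre reporter, and RFP. After sorting into GFP/RFP bins, every bin was sequenced on an Illumina platform at phred ≥30. The GFPSEQ value, a measure of nonsense suppression, is the weighted bin median GFP/RFP relative to the unmutated parent tRNA, using each variant's estimated cell share per bin as the weight. Only variants with ≥100 reads and ≥30 cells were included.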
On to U4G U20A G26C G67U, for which the nonsense suppression was ≤ 0.026.

Regarding U35A C72G G86U, the nonsense suppression was ≤ 0.026.

Regarding U21C C29A A87G, the nonsense suppression is ≤ 0.026.

Take U21G C64G A87C: the nonsense suppression was ≤ 0.026.

Take C3U G25U A33C C72G: the nonsense suppression is ≤ 0.026.

As for C11U G61C, the nonsense suppression is 0.0829.

For A14G C79G, the nonsense suppression is ≤ 0.026.

In the case of U22G U55C G65C C80G, the nonsense suppression is ≤ 0.026.

As for A23G U55C, the nonsense suppression was 0.0273.

For C29G G84U, the nonsense suppression was ≤ 0.026.

Regarding U22C A24C C27U A31C U35G U57C G67U, the nonsense suppression is ≤ 0.026.

For the variant C3U A14G U21C A54G G66C G86U, the nonsense suppression was ≤ 0.026.

Turning to A33C U70C, the nonsense suppression was ≤ 0.026.

Turning to G18C G26U A62C G67C, the nonsense suppression is ≤ 0.026.

As for U8C G15U A23U A62G C64A G65C, the nonsense suppression is ≤ 0.026.

As to G7U U55A G86U, the nonsense suppression is ≤ 0.026.

Take G10C G61A G66C C68U C75U: the nonsense suppression is ≤ 0.026.

As to C5G G59A A62C, the nonsense suppression is ≤ 0.026.

G25C U35C U57C G86C: the nonsense suppression is ≤ 0.026.

As for C29A U58G G86A A87G, the nonsense suppression is ≤ 0.026.

Consider A14U A24C A31C, for which the nonsense suppression was ≤ 0.026.

For the variant U4C U22G G26U G73C G78C, the nonsense suppression is ≤ 0.026.

As for A9G G59U C77U, the nonsense suppression was ≤ 0.026.

For the variant C1G A30G G61A, the nonsense suppression was ≤ 0.026.

A9G C11U G67C C68G C80U: the nonsense suppression is ≤ 0.026.

As to U21A U35A, the nonsense suppression is ≤ 0.026.

Regarding C1G U58A, the nonsense suppression is ≤ 0.026.

For C1U U57G, the nonsense suppression was ≤ 0.026.

Turning to G25U C34A U76C G84A, the nonsense suppression is ≤ 0.026.

As for A14U G26U G78A, the nonsense suppression is ≤ 0.026.

Take C12G U16A U70A: the nonsense suppression is ≤ 0.026.

On to C3U G78C A89U, for which the nonsense suppression is ≤ 0.026.

Take C1A A30G C75A: the nonsense suppression was ≤ 0.026.

As to U4C A9C, the nonsense suppression is 1.02.

With U16C U76G, the nonsense suppression is ≤ 0.026.

Take C81U G84U: the nonsense suppression stood at 0.065.

Turning to A24G U55C, the nonsense suppression was 0.0553.

Consider A31G C34A U76A C83A G85A, for which the nonsense suppression was ≤ 0.026.

Turning to G7A U17A G26A A31G U55A C72G, the nonsense suppression is ≤ 0.026.

U4G C11U U58A G69C: the nonsense suppression was ≤ 0.026.

Take U8G A13C U63A: the nonsense suppression was ≤ 0.026.

Turning to G25U G26C A31G U55A G84C, the nonsense suppression is ≤ 0.026.

Consider A30G C81G, for which the nonsense suppression is ≤ 0.026.

For C83G, the nonsense suppression is ≤ 0.026.

Turning to U20A U63C G88U, the nonsense suppression is ≤ 0.026.

For the variant C5U G73A, the nonsense suppression is ≤ 0.026.

Regarding A23C C56A, the nonsense suppression is ≤ 0.026.

Take U17C C64G: the nonsense suppression is ≤ 0.026.

Regarding U2C C82U G84A, the nonsense suppression was ≤ 0.026.

Regarding C3U U35G G61A, the nonsense suppression was ≤ 0.026.

As for U4G A24G G28C U57A C64U, the nonsense suppression was ≤ 0.026.

In the case of U4G C11G, the nonsense suppression was ≤ 0.026.

For the variant G18C A62U, the nonsense suppression is ≤ 0.026.

As for G18A G32C, the nonsense suppression was ≤ 0.026.

With A31U A89C, the nonsense suppression was ≤ 0.026.

On to G65U G66C, for which the nonsense suppression is ≤ 0.026.

Consider U4C U21G C56U U63C G65A, for which the nonsense suppression was ≤ 0.026.

Consider G32A G86C, for which the nonsense suppression was ≤ 0.026.

Turning to A24C C64U G67C C79U, the nonsense suppression was ≤ 0.026.

A33G C79A G88C: the nonsense suppression is ≤ 0.026.

In the case of C3A G10U U35G, the nonsense suppression is ≤ 0.026.

Turning to U22C G66A A87G, the nonsense suppression was ≤ 0.026.

For the variant C29G A31U, the nonsense suppression was ≤ 0.026.

On to A54C U63G, for which the nonsense suppression was 0.0506.

As to C1G A14U U71A C81A, the nonsense suppression is ≤ 0.026.

Take G7U U71C: the nonsense suppression was ≤ 0.026.

Consider U17G G19C U20C A33U, for which the nonsense suppression is ≤ 0.026.

Consider A14G U16A C72G G88C, for which the nonsense suppression was ≤ 0.026.

In the case of G18U U21G A23U G61A G78A, the nonsense suppression is ≤ 0.026.

As for C34U U35G, the nonsense suppression is ≤ 0.026.

With G28A U57A C75U G86A, the nonsense suppression is ≤ 0.026.

On to A14G A87G, for which the nonsense suppression was ≤ 0.026.

Consider U17A C79G, for which the nonsense suppression is ≤ 0.026.

Take U4A U21A C68G: the nonsense suppression is ≤ 0.026.

Regarding G7C A9G G26U C34U U70C G85A, the nonsense suppression is ≤ 0.026.

Regarding A9C G19A A31U, the nonsense suppression is ≤ 0.026.

For U57G G61A G69A C80G, the nonsense suppression was ≤ 0.026.

Regarding A13G G25U G59C U70G G85C, the nonsense suppression is ≤ 0.026.

Consider A74C A87G, for which the nonsense suppression is ≤ 0.026.

As for U17G C68A G69U, the nonsense suppression was ≤ 0.026.

Consider U2G U35G, for which the nonsense suppression is ≤ 0.026.

Regarding A9U C34A C56A C72A, the nonsense suppression was ≤ 0.026.

For the variant G32A U70A C82G, the nonsense suppression is ≤ 0.026.

On to C1A U2A G28A, for which the nonsense suppression was ≤ 0.026.

As for C1U U17G, the nonsense suppression is ≤ 0.026.

Turning to U4A U21G C79U, the nonsense suppression is ≤ 0.026.

Turning to U4A A33G G84C, the nonsense suppression is ≤ 0.026.

Consider U8G U16G G59C C75U, for which the nonsense suppression is ≤ 0.026.

U21A U55A G59C C79A: the nonsense suppression was ≤ 0.026.

For A23C C34U, the nonsense suppression is ≤ 0.026.

For G84U A89G, the nonsense suppression is ≤ 0.026.

As for C3G A9U U55G, the nonsense suppression was ≤ 0.026.

Regarding C5A A87G, the nonsense suppression was ≤ 0.026.

Consider G32C C34A U71G U76A G88U, for which the nonsense suppression was ≤ 0.026.

G28U G84A: the nonsense suppression is ≤ 0.026.

As to U2A G32A C56G, the nonsense suppression is ≤ 0.026.

In the case of G18C G25A A33U U55A C77U, the nonsense suppression is ≤ 0.026.

As to U4A C5A U21G C34U U70A, the nonsense suppression is ≤ 0.026.

For C12U U20G C80G, the nonsense suppression was ≤ 0.026.

With G19A U21G C34U C77A, the nonsense suppression was ≤ 0.026.

G6C U55G: the nonsense suppression is ≤ 0.026.

With C56U C64A A74C C75A, the nonsense suppression is ≤ 0.026.

Regarding C34G G84U G88U, the nonsense suppression was ≤ 0.026.

As for C1U U35A C77A G84U, the nonsense suppression is ≤ 0.026.

As for A31G G61U G69A, the nonsense suppression was ≤ 0.026.

For the variant C3U A33G C34G, the nonsense suppression is ≤ 0.026.

Turning to U63A C79G, the nonsense suppression is ≤ 0.026.

Take C3G U16G G66A: the nonsense suppression is ≤ 0.026.

For C68A U71C G86A, the nonsense suppression was ≤ 0.026.

Turning to G7U A24G, the nonsense suppression was ≤ 0.026.

Regarding G7A G78C C82G, the nonsense suppression is ≤ 0.026.

For C29U G78U, the nonsense suppression was ≤ 0.026.

For A14G G61U G67U A87C, the nonsense suppression was ≤ 0.026.

For the variant U57A C82A, the nonsense suppression was ≤ 0.026.

U2G G10C U20A A24G U35G: the nonsense suppression is ≤ 0.026.

Turning to C11G C27U A60C G69A U70G, the nonsense suppression was ≤ 0.026.

Regarding A14U G32C, the nonsense suppression was ≤ 0.026.

A62U G67C C79A: the nonsense suppression was ≤ 0.026.

Regarding U71A G78A G85C, the nonsense suppression is ≤ 0.026.

On to U21G G28A A33U G78A, for which the nonsense suppression was ≤ 0.026.

In the case of G66A G73U A74G G86U, the nonsense suppression is ≤ 0.026.

For G59A U63C C80A, the nonsense suppression is ≤ 0.026.

As to C5U A74C, the nonsense suppression was ≤ 0.026.

As to U2C G19C C82A, the nonsense suppression was ≤ 0.026.

Regarding G59C G61C, the nonsense suppression is ≤ 0.026.

C5G G18C A60G A62U G69C: the nonsense suppression was ≤ 0.026.

Turning to C5U A13C U76A, the nonsense suppression was ≤ 0.026.

Regarding U22A G28A, the nonsense suppression was 1.14.

Turning to G66A G67U A87C, the nonsense suppression is ≤ 0.026.

G7A C68G C81A: the nonsense suppression was ≤ 0.026.

On to U22C A87G, for which the nonsense suppression worked out at 0.724.

In the case of A14G G18A U21C A30G A33G C79A C82A A89U, the nonsense suppression is ≤ 0.026.

As to G10C G67C U70A, the nonsense suppression was ≤ 0.026.

As to C3U G25U A54C U71A, the nonsense suppression was ≤ 0.026.

As for U17A G19A, the nonsense suppression was ≤ 0.026.

Take A14U U71C: the nonsense suppression was ≤ 0.026.

As to C1U U70C G84U, the nonsense suppression is ≤ 0.026.

For the variant C12A G25C G66C C81G A89C, the nonsense suppression was ≤ 0.026.

Turning to U4A C12G C64G G66C, the nonsense suppression was ≤ 0.026.

Consider A13U G15U G65C, for which the nonsense suppression is ≤ 0.026.

With G6C U22C U71A, the nonsense suppression was ≤ 0.026.

Turning to C11G A89C, the nonsense suppression was ≤ 0.026.

A23G A30C: the nonsense suppression was ≤ 0.026.

G28C C34A C68G A89U: the nonsense suppression is ≤ 0.026.

In the case of A9G G65A C81U A89C, the nonsense suppression is ≤ 0.026.

For the variant U8C U17C G66A C75A, the nonsense suppression is ≤ 0.026.

As to U2A G86U, the nonsense suppression was ≤ 0.026.

As for U21G U57C C79G A89C, the nonsense suppression was ≤ 0.026.

On to G10A U76A, for which the nonsense suppression was ≤ 0.026.

As to C5U G19A U57C G61U, the nonsense suppression was ≤ 0.026.

As to A9G C83A, the nonsense suppression was ≤ 0.026.

For the variant C3G G6C U20A A23U A30U, the nonsense suppression was ≤ 0.026.

Take C34U A87C: the nonsense suppression was ≤ 0.026.

As to A62C C77G, the nonsense suppression was ≤ 0.026.

Take A9C U20A U76A C77A: the nonsense suppression is ≤ 0.026.

Regarding U17A G86A, the nonsense suppression is ≤ 0.026.

Consider C1U A9U C80A, for which the nonsense suppression was ≤ 0.026.

Turning to G18A G19A U70C, the nonsense suppression is ≤ 0.026.

A54G U55G U58C: the nonsense suppression was ≤ 0.026.

On to C1G U35A, for which the nonsense suppression was ≤ 0.026.

On to G25U U35C G59U G88A, for which the nonsense suppression is ≤ 0.026.

With G10C C11A A87G, the nonsense suppression was ≤ 0.026.

As for A13C U55A U57C C68U, the nonsense suppression was ≤ 0.026.

As to A13G G86A, the nonsense suppression was ≤ 0.026.

For A30U U70G A74U, the nonsense suppression is ≤ 0.026.

Regarding G15A G73A, the nonsense suppression was ≤ 0.026.

In the case of A14U A31U A87U, the nonsense suppression is ≤ 0.026.
